Measurements from article PMC12171682, “Saarvienin A—A Novel Glycopeptide with Potent Activity against Drug‐Resistant Bacteria” (Angewandte Chemie (International Ed. in English), 2025).
In brackets after ≈: the same amount, converted by molar mass.

Tests used:
[1] = test system: M. smegmatis mc^2155; settings: 7H9 complete medium with 10% OADC, two-fold serial dilutions, 1% DMSO, visual read-out; mean of three independent biological replicates, each in technical triplicate
[2] = test system: P. aeruginosa PA14 ΔmexAB; settings: broth microdilution, cation-adjusted Mueller-Hinton Broth II, ~4 × 10⁵ CFU/mL, 37 °C, 24 h; mean of three independent biological replicates, each in technical triplicate
Excerpt: All bacterial isolates were handled following standard procedures. Staphylococcus aureus strains Mu50 and N315 were obtained from the Institute of Medical Microbiology, Zurich, Switzerland. […] E. faecalis DSM 12956 and Enterococcus faecium DSM 17050 were purchased from the German Collection of Microorganisms and Cell Cultures (DSMZ). The S. aureus HG001 strain and its daptomycin-resistant mutant, HG001 DAPR, were provided by the Institute for Pharmaceutical Microbiology (IPM), University of Bonn. E. coli WO153 was generously provided by the Antimicrobial Discovery Center, Department of Biology, Northeastern University. Additional strains were part of our internal collection and were cultured under conditions recommended by their respective depositors. A collection of twenty six vancomycin-resistant E. faecium clinical isolates with reduced sensitivity to daptomycin, were generously provided by PD Dr. Stefano Mancini from the Institute of Medical Microbiology, University of Zurich.

SMILES | MIC, M. smegmatis mc^2155 [1] [µg/mL] | MIC, P. aeruginosa PA14 ΔmexAB [2] [µg/mL]
CN[C@H](CC(C)C)C(=O)N[C@H]1C(=O)N[C@@H](CC(N)=O)C(=O)N[C@H]2C(=O)N[C@H]3C(=O)N[C@H](C(=O)N[C@H](C(=O)O)c4cc(O)cc(O)c4-c4cc3ccc4O)[C@H](O)c3ccc(c(Cl)c3)Oc3cc2cc(c3O[C@@H]2O[C@H](CO)[C@@H](O)[C@H](O)[C@H]2O[C@H]2C[C@](C)(N)[C@H](O)[C@H](C)O2)Oc2ccc(cc2Cl)[C@H]1O [Vancomycin, vancomycin] | 2 (≈ 1.38 µM) | –
CN[C@@]1(C)C[C@H](O[C@@H]2[C@H](O)C[C@H](O[C@H]3[C@H](C)O[C@@H](O[C@H]4[C@H](O[C@H]5[C@H](C)O[C@@H](Oc6ccc(C[C@@H](O)C(=O)N[C@H]7CNC(=O)NC[C@@H](C(=O)N[C@H](Cc8ccccc8)C(=O)O)NC(=O)[C@H]([C@H](C)c8c[nH]c9ccc(Cl)cc89)NC7=O)cc6)C[C@]5(C)N)O[C@@H](C)[C@H](O)[C@H]4O)C[C@]3(C)NC)O[C@H]2C)O[C@@H](C)[C@@H]1OC [Saarvienin A, saarvienin A] | 1 (≈ 0.662 µM) | >64
